Data from PubChem BioAssay AID504832 (National Center for Advancing Translational Sciences (NCATS), 2011).
Among all 310,000 compounds or so, about 18,000 (5.8%) were called active. Inconclusive means that the source gave no clear call. Such entries were picked first, then a sample of the others. Calls come from the whole dose curve; as a rule, active = well fitted inhibition curve with a large enough effect; inconclusive = small, poorly fitted or top-dose-only effect, or another doubt; inactive = no such curve, though single readings can be large or run the other way. No potency is given beside an inconclusive call; the fits are too rough.

assay: Primary qHTS for delayed death inhibitors of the malarial parasite plastid, 48 hour incubation; conditions: P. falciparum luciferase growth in erythrocytes; series mostly up to 28.7 µM; activity change, negative = inhibition: at the top concentration
How it was run: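 Cell-based growth assay: transgenic P. falciparum expressing firefly luciferase, cultured in red cells within RPMI 1640 containing 0.5% w/v Albumax, 24 mM bicarbonate and gentamycin. A drop in luciferase activity indicates inhibition.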
% is set by controls: 0 for no effect and ±100 for the full control effect; potency is the fitted concentration of half-maximal effect; tags give direction and shape of the fitted curve.

Question: With COc1cc(/C=N/Nc2ccc(C(F)(F)F)cn2)cc(OC)c1O as the molecule, how does the Potency read?
Answer: Its Potency is inconclusive [inhibitor, single point].

Question: With CC1(C)Cc2c(sc3c2c(=N)n(Cc2ccco2)c(=O)n3CC(=O)Nc2ccccc2)CO1 as the molecule, how does the Potency read?
Answer: Its Potency is inconclusive [inhibitor, partial curve, poor fit].

Question: Which “activity change, negative = inhibition” value does the source give for CCOC(=O)c1ccc(NC(=O)CN2C(=O)C(C)SC(C)C2=O)cc1 (stereo unspecified) here?
Answer: Its value is inactive: 38.2%.

Question: Which Potency does the source give for O=[N+]([O-])c1ccc(Cl)c(NC2=NCCCCC2)c1 here?
Answer: The Potency was inconclusive [inhibitor, single point].

Question: For COc1ccc(C(=O)C2CCCN(Cc3sc(N4CCCC4)nc3Cl)C2)c(OC)c1 (stereo unspecified), which Potency is on record?
Answer: Its Potency is inconclusive [inhibitor, single point].

Question: With CN1C(=O)C(O)(CC(=O)c2cccs2)c2ccccc21 (stereo unspecified) as the molecule, how does the “activity change, negative = inhibition” value read?
Answer: The value was inactive: -1.85%.

Question: With Cc1ccc(C)c(NC(=O)CN(C)C(=O)c2cccc(S(=O)(=O)N3CCN(Cc4ccccc4)CC3)c2)c1 as the molecule, how does the Potency read?
Answer: The Potency was inconclusive [inhibitor, single point].

Question: Which Potency does the source give for CCOc1ccc(C(C(=O)NCC2CCCO2)N(Cc2cccc(OC)c2)C(=O)c2snc(C(N)=O)c2N)cc1 (stereo unspecified) here?
Answer: Its Potency is active: 13.1 µM.

Question: With O=C(NCCN1CCOCC1)c1ccc(Cl)c(S(=O)(=O)N2CCCC2)c1 as the molecule, how does the Potency read?
Answer: Its Potency is inconclusive [inhibitor, partial curve].

Question: Which Potency does the source give for CCCCn1c(=N)n(CC(O)COc2cccc(C)c2)c2ccccc21 (stereo unspecified) here?
Answer: The Potency was active: 7.38 µM.

Question: Which Potency does the source give for CCOC(=O)Nc1ccc2c(c1)N(CCCN(C)C)c1ccccc1CC2 here?
Answer: The Potency was inconclusive [inhibitor, partial curve, poor fit].

Question: With O=C(c1cc(S(=O)(=O)N2CCCCC2)ccc1N1CCOCC1)N1CCN(Cc2ccccc2)CC1 as the molecule, how does the Potency read?
Answer: The Potency was inconclusive [inhibitor, partial curve].

Question: With COCCn1c(SCc2c(F)cccc2Cl)nc2c1c(=O)[nH]c(=O)n2C as the molecule, how does the “activity change, negative = inhibition” value read?
Answer: Its value is inactive: -25.9%.

Question: Which Potency does the source give for C/C(=N\NC(=O)c1nnn(-c2nonc2N)c1CN1CCc2ccccc21)c1ccccc1O here?
Answer: Its Potency is inconclusive [inhibitor, single point].

Question: Which Potency does the source give for Cc1cc2c(c(=O)n1-c1ccccc1)C1O[C@](c3ccsc3)(Cc3ccccc31)O2 here?
Answer: Its Potency is inconclusive [inhibitor, full curve, poor fit].

Question: For COc1ccc(C2/C=C\CN(S(=O)(=O)c3cccc4cccnc34)CC(=O)N2Cc2ccc(F)cc2)cc1 (stereo unspecified), which Potency is on record?
Answer: Its Potency is inconclusive [inhibitor, partial curve].

Question: For CC(=O)Nc1ccc(S(=O)(=O)Oc2cccc(/C=N/N=C3/NC(=O)C(CC(=O)O)S3)c2)cc1 (stereo unspecified), which “activity change, negative = inhibition” value is on record?
Answer: The value was inactive: 0%.

Question: With Cn1c(=O)c(C(=O)CSc2nncs2)c(N)n(Cc2ccccc2)c1=O as the molecule, how does the Potency read?
Answer: The Potency was inconclusive [inhibitor, partial curve].

Question: With COc1ccc(CNC(=O)C(=O)NCC2CCCN2S(=O)(=O)c2ccccc2)cc1 (stereo unspecified) as the molecule, how does the Potency read?
Answer: Its Potency is inconclusive [inhibitor, single point].

Question: Which Potency does the source give for CCc1nnc(NC(=O)c2cc(S(=O)(=O)N(CC)CC)ccc2Cl)s1 here?
Answer: The Potency was inconclusive [inhibitor, partial curve, poor fit].

Question: For CCCc1cc(-c2[nH]ncc2-c2ccc(C(=O)OCC)o2)c(O)cc1O, which Potency is on record?
Answer: Its Potency is active: 6.57 µM.

Question: For CCc1cc(OCCCSc2nc(C)cc(=O)[nH]2)ccc1Cl, which Potency is on record?
Answer: Its Potency is inconclusive [inhibitor, partial curve, poor fit].

Question: For O=C(c1ccccn1)N1N=C2/C(=C/c3ccc(F)cc3)CCCC2C1c1ccc(F)cc1 (stereo unspecified), which Potency is on record?
Answer: The Potency was inconclusive [inhibitor, single point].

Question: Which Potency does the source give for COc1ccc(-c2csc(Cc3nnc(N4CCOCC4)n3-c3ccccc3)n2)cc1 here?
Answer: Its Potency is inconclusive [inhibitor, single point].

Question: With O=C(Nc1ccc(Br)cn1)c1ccc(COc2c(F)c(F)cc(F)c2F)o1 as the molecule, how does the “activity change, negative = inhibition” value read?
Answer: Its value is inactive: 27.2%.

Question: With CN1C(C(=O)NCc2ccco2)CC2Cn3c(nc4cc(Cl)c(Cl)cc43)C21 (stereo unspecified) as the molecule, how does the “activity change, negative = inhibition” value read?
Answer: The value was inactive: -12.4%.

Question: For Cc1ccc(Nc2nc(CSc3nnnn3C)cs2)cc1, which “activity change, negative = inhibition” value is on record?
Answer: The value was inactive: 173%.

Question: With O=S(=O)(NCC(c1cccs1)N1CCc2ccccc2C1)c1ccccc1 (stereo unspecified) as the molecule, how does the Potency read?
Answer: Its Potency is inconclusive [inhibitor, single point].

Question: With Cc1ccc(NS(=O)(=O)c2cc(OCC(N)=O)c(C)cc2Cl)cc1 as the molecule, how does the “activity change, negative = inhibition” value read?
Answer: Its value is inactive: -14%.

Question: With COc1cccc(-c2nc(C(=O)NCCCN3CCOCC3)cc3c2[nH]c2ccccc23)c1 as the molecule, how does the Potency read?
Answer: Its Potency is active: 13.1 µM.

Question: Which Potency does the source give for C=CCN1C(=O)C(CC(=O)Nc2ccc(OCC)cc2)N(Cc2ccccn2)C1=S (stereo unspecified) here?
Answer: The Potency was inconclusive [inhibitor, single point].

Question: For CC1Cc2ccccc2N1C(=S)NC(=O)c1cccc(Br)c1 (stereo unspecified), which Potency is on record?
Answer: Its Potency is inconclusive [inhibitor, single point].

Question: For C#CC[N+](C)(C)CCCCCCCCCCCC, which Potency is on record?
Answer: Its Potency is active: 1.47 µM.

Question: With Cn1c(=O)c2c(nc(NCCCN3CCOCC3)n2Cc2ccc(Cl)cc2)n(C)c1=O as the molecule, how does the “activity change, negative = inhibition” value read?
Answer: Its value is inactive: 33%.

Question: For COc1ccccc1CCc1nnc(CCC(=O)N(C)Cc2cccc3cnccc23)o1, which Potency is on record?
Answer: Its Potency is inconclusive [inhibitor, partial curve, poor fit].

Question: With O=c1[nH]c2ccccc2n1C1=CCNCC1 as the molecule, how does the “activity change, negative = inhibition” value read?
Answer: The value was inactive: -11.7%.

Question: Which Potency does the source give for CN1CCN(CCCCOc2ccccc2C=O)CC1 here?
Answer: Its Potency is inconclusive [inhibitor, single point].

Question: With CCOc1ccccc1-c1cc(C(=O)N/N=C/c2ccc(O)c(OC)c2)c2ccccc2n1 as the molecule, how does the Potency read?
Answer: The Potency was inconclusive [inhibitor, partial curve, poor fit].

Question: With CC(C)CNC(=O)c1coc(=O)c(Br)c1 as the molecule, how does the Potency read?
Answer: Its Potency is inconclusive [inhibitor, partial curve, poor fit].

Question: With O=C(N[C@@H](Cc1ccccc1)C(=O)OCc1ccccc1)c1nc[nH]c1C(=O)N1CCc2ccccc2C1 as the molecule, how does the Potency read?
Answer: The Potency was inconclusive [inhibitor, single point].

Question: Which Potency does the source give for CCOc1ccc(NC(=O)CCCn2nc(C)c3c(C)n(-c4ccccc4)nc3c2=O)cc1 here?
Answer: The Potency was inconclusive [inhibitor, partial curve, poor fit].

Question: With COc1cc(NS(=O)(=O)c2ccc(NC(=O)C34CC5CC(CC(C5)C3)C4)cc2)ncn1 as the molecule, how does the Potency read?
Answer: The Potency was inconclusive [inhibitor, partial curve, poor fit].

Question: Which Potency does the source give for O=c1[nH]c(NC2CCN(S(=O)(=O)c3ccccc3C(F)(F)F)CC2)nc2c1CCCC2 here?
Answer: Its Potency is inconclusive [inhibitor, partial curve].

Question: Which “activity change, negative = inhibition” value does the source give for N#CCC(=O)Nn1c(=S)[nH]c2ccccc2c1=O here?
Answer: The value was inactive: 0%.

Question: Which “activity change, negative = inhibition” value does the source give for Cc1ccc(C#N)c(SCC(=O)Nc2nccs2)n1 here?
Answer: Its value is inactive: 83.2%.

Question: Which Potency does the source give for COc1ccccc1N1CCN(S(=O)(=O)Cc2ccccc2Cl)CC1 here?
Answer: The Potency was inconclusive [inhibitor, single point].

Question: For COc1ccc(/C=C2\C(=O)NC(=S)N2C(=O)c2ccc(F)cc2)cc1, which “activity change, negative = inhibition” value is on record?
Answer: Its value is inactive: 18.9%.

Question: For Oc1ccccc1CNc1ccc(OC(F)(F)F)cc1, which Potency is on record?
Answer: Its Potency is inconclusive [inhibitor, single point].

Question: For CCCNC(=O)N1CCN(C(c2ccccc2)c2ccccc2)CC1, which Potency is on record?
Answer: The Potency was inconclusive [inhibitor, partial curve, poor fit].

Question: With COc1ccccc1NC(=O)CCCCCN1C(=O)c2cccc3cccc(c23)C1=O as the molecule, how does the Potency read?
Answer: Its Potency is inconclusive [inhibitor, single point].

Question: With COc1ccc(Cl)cc1NC(=O)CN1CCN(Cc2ccccc2)CC1 as the molecule, how does the “activity change, negative = inhibition” value read?
Answer: Its value is inactive: -28.4%.

Question: For O=C(COc1ccccc1[N+](=O)[O-])Nc1cccc(S(=O)(=O)NC2=NCCCCC2)c1, which Potency is on record?
Answer: The Potency was inconclusive [inhibitor, partial curve, poor fit].

Question: With CC1CCN(C(=O)c2[nH]cnc2C(=O)NC2CCN(C(=O)OC(C)(C)C)CC2)CC1 as the molecule, how does the Potency read?
Answer: The Potency was inconclusive [inhibitor, partial curve, poor fit].

Question: Which Potency does the source give for Cc1cccc2cc(CN(Cc3cccs3)C(c3nnnn3C3CCCC3)C(C)C)c(=O)[nH]c12 (stereo unspecified) here?
Answer: Its Potency is active: 2.62 µM.

Question: With CCN=c1sc2ccccc2n1CC(O)COc1ccccc1 (stereo unspecified) as the molecule, how does the Potency read?
Answer: The Potency was inconclusive [inhibitor, single point].

Question: Which “activity change, negative = inhibition” value does the source give for CC(=O)N1CCc2cc(S(=O)(=O)NCCCN3CCCCC3)ccc21 here?
Answer: Its value is inactive: 7.85%.

Question: With CC1=NN(C(N)=S)C(=O)C1N=Nc1cccc(C)c1 (stereo unspecified) as the molecule, how does the Potency read?
Answer: Its Potency is active: 11.7 µM.

Question: For CC(OC(=O)c1cccc([N+](=O)[O-])c1)C(=O)NCc1ccc2c(c1)OCO2 (stereo unspecified), which “activity change, negative = inhibition” value is on record?
Answer: Its value is inactive: -7.97%.

Question: For N/C(=N\OC(=O)COc1ccc(Cl)cc1Cl)c1ccccn1, which “activity change, negative = inhibition” value is on record?
Answer: The value was inactive: 202%.

Question: With CCCN1CCN(CCCNC(=O)Cn2nc(-c3ccc(C)cc3)ccc2=O)CC1 as the molecule, how does the Potency read?
Answer: Its Potency is inconclusive [inhibitor, single point].

Question: For CC(=O)N1c2ccc(S(=O)(=O)N3CCC(C(=O)Nc4cccc(F)c4)CC3)cc2CC1C (stereo unspecified), which Potency is on record?
Answer: Its Potency is inconclusive [inhibitor, partial curve, poor fit].

Question: For Cc1ccccc1-n1c(SCC(=O)NCC2CCCO2)nc2c([nH]c3ccccc32)c1=O (stereo unspecified), which Potency is on record?
Answer: Its Potency is inconclusive [inhibitor, single point].

Question: With O=C(NC(=S)Nc1ccccc1N1CCCCC1)c1cccs1 as the molecule, how does the Potency read?
Answer: The Potency was inconclusive [inhibitor, single point].

Question: With COc1cc(C(=O)NS(=O)(=O)c2ccccc2C)ccc1Cc1cn(C)c2ccc(NC(=O)OC3CCCC3)cc12 as the molecule, how does the Potency read?
Answer: Its Potency is inconclusive [inhibitor, single point].

Question: Which Potency does the source give for COc1ccc(OC)c(C2C3=C(N=C4SCC(=O)N42)c2ccccc2CC3)c1 (stereo unspecified) here?
Answer: Its Potency is inconclusive [inhibitor, full curve, poor fit].

Question: For O=C(Nc1cccc(Cl)c1)c1cccc(Oc2ccc([N+](=O)[O-])cc2Cl)c1, which Potency is on record?
Answer: The Potency was inconclusive [inhibitor, single point].
